We go through 15 sequences from the supplement of paper PMC7826260.

What all share (assay): uncleaved DNA left, log2 of reads against the no-enzyme library (log2 ratio); higher = less cleavage (more negative = more Rep cleavage of the k-mer); sequences stand for … in CTCGTCCG…ACCGGAGA
Test [1] has as its system T1, Rep nickase domain of Muscovy duck circovirus.
T1 sequence (residues 1-111, tag not shown): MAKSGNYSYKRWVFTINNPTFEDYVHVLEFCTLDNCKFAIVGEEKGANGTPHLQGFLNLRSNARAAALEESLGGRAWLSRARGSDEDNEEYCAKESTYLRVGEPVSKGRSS
On the procedure:
(§1)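 A pool of 90-nt single-stranded DNAs with seven random bases just before the constant AC of the nick site (name = the seven bases) was cut by 3 µM recombinant His6-SUMO-tagged Rep nickase domain (300 nM DNA, 50 mM HEPES pH 8.0, 50 mM NaCl, 1 mM MnCl2, 1 h, 37 °C, three replicates). Uncut DNA was amplified and sequenced.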

Test [2] deals with T2, Rep nickase domain of banana bunchy top virus.
T2 sequence (residues 1-94, tag not shown): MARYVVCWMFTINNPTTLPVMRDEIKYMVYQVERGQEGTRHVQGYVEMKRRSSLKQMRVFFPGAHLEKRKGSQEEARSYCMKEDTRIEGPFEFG
The procedure: as §1
The subject of test [3] is T3, Rep nickase domain of cabbage leaf curl virus.
T3 sequence (residues 1-116, tag not shown): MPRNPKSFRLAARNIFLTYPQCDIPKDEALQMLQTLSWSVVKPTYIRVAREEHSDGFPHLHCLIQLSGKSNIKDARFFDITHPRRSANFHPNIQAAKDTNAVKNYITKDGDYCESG
The procedure:
as §1

Test [4] deals with T4, Rep nickase domain of chickpea chlorotic dwarf virus.
T4 sequence (residues 1-124, tag not shown): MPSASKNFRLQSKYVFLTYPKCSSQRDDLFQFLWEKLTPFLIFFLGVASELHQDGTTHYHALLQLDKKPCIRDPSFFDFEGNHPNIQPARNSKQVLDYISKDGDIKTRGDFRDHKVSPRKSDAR
On the procedure: as §1
In test [5] the test system is T5, Rep nickase domain of faba bean necrotic yellows virus.
T5 sequence (residues 1-98, tag not shown): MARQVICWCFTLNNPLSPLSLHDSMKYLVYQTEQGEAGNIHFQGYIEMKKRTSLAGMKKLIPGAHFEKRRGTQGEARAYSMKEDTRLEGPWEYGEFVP
The procedure: as §1
Test [6] deals with T6, Rep nickase domain of maize striate mosaic virus.
T6 sequence (residues 1-117, tag not shown): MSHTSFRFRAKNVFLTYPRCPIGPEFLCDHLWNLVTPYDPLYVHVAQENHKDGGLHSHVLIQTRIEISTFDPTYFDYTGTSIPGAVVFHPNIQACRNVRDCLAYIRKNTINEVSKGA
The procedure: as §1
For test [7], the system named is T7, Rep nickase domain of porcine circovirus 2.
T7 sequence (residues 2-116, tag not shown): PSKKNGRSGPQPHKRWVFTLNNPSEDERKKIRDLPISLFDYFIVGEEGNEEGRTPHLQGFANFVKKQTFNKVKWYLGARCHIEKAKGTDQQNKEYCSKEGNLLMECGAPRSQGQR
On the procedure: as §1
Test [8] relates to T8, Rep nickase domain of tomato golden mosaic virus.
T8 sequence (residues 1-124, tag not shown): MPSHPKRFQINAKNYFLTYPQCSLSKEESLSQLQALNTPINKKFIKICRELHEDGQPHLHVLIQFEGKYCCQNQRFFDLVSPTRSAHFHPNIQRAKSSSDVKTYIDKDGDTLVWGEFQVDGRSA
The procedure: as §1
The subject of test [9] is T9, Rep nickase domain of tomato yellow leaf curl virus.
T9 sequence (residues 1-136, tag not shown): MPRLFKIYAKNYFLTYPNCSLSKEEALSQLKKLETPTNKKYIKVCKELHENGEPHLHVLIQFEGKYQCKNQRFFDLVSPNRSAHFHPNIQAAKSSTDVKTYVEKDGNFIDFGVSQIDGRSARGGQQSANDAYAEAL
On the procedure:
as §1

Test [10] relates to T10, Rep nickase domain of wheat dwarf virus.
T10 sequence (residues 1-137, tag not shown): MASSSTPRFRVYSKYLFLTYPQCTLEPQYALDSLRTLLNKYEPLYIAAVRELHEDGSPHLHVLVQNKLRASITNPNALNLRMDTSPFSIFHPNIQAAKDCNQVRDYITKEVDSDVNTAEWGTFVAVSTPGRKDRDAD
The procedure: as §1

This is one part of the list. Cleavage of a single-stranded DNA pool by Rep nickase domains was read by sequencing at 3 µM enzyme and 37 °C for 1 h; the strands have 90 letters, of which the middle is given. Values are log2 of uncut reads against the no-enzyme pool; more negative means more cut, near 0 not cut, and no call is made. Counts are relative to all reads, so uncut sequences can rise above 0 when many others are cut.

For the sequence ATACAGA, the “uncleaved DNA left (log2)” value in test [1] is 0.0563; in test [2], -0.015; in [3] it was -0.156; in test [4] it was -0.839; in [5], 0.0587; in [6], -0.848. The “uncleaved DNA left (log2)” value in [7] is 0.111; in [8], 0.0214; in test [9], -0.0184; in [10] it was 0.0365.

For CATCTCA, the “uncleaved DNA left (log2)” value in test [1] was 0.0391; in test [2], 0.134; in test [3], -0.122; in test [4], -1.44; in test [5], 0.0339; in test [6], -0.407. In addition, the “uncleaved DNA left (log2)” value in test [7] is 0.0506; in test [8], -0.00929; in [9] it was 0.138; in test [10] it was 0.141.

For AATAGAC, the “uncleaved DNA left (log2)” value in test [1] was 0.0223; in test [2], 0.0409; in [3], 0.174; in test [4] it was 0.429; in [5], 0.0934; in test [6], -0.295. Moreover, the “uncleaved DNA left (log2)” value in [7] came out at 0.273; in test [8], 0.0712; in test [9], 0.0385; in [10], 0.0192.

As for AACGGAC, the “uncleaved DNA left (log2)” value in [1] was -0.0481; in test [2] it was -0.0247; in test [3], 0.299; in test [4] it was 0.964; in test [5], -0.0386; in test [6], 1.08. In addition, the “uncleaved DNA left (log2)” value in test [7] is 0.105; in test [8], 0.0414; in test [9], -0.141; in test [10], 0.0455.

As for GACACGC, the “uncleaved DNA left (log2)” value is -0.0554 in [1]; -0.0394 in test [2]; -0.195 in test [3]; -0.0384 in [4]; 0.0392 in test [5]; -0.496 in test [6]. Further, the “uncleaved DNA left (log2)” value in test [7] was 0.00729; in test [8], -0.0649; in test [9] it was -0.0717; in test [10] it was -0.00327.

Regarding CTATGCG, the “uncleaved DNA left (log2)” value in test [1] was -0.141; in test [2] it was -0.165; in [3] it was -0.696; in test [4] it was 0.582; in [5], 0.0166; in test [6] it was -0.286. In addition, the “uncleaved DNA left (log2)” value in [7] is -0.0418; in test [8], -0.158; in [9], -0.367; in [10] it was -0.284.

Take GCGACCA: the “uncleaved DNA left (log2)” value in test [1] was -0.0549; in test [2], 0.0757; in test [3], 0.0316; in test [4], 0.412; in [5] it was -0.043; in test [6] it was 0.639. The “uncleaved DNA left (log2)” value in test [7] was -0.0524; in test [8] it was 0.000483; in test [9], 0.0389; in [10], 0.0551.

Regarding CTTAATC, the “uncleaved DNA left (log2)” value is 0.183 in test [1]; 0.212 in [2]; 0.126 in [3]; 0.11 in test [4]; 0.137 in test [5]; -0.72 in [6]. The “uncleaved DNA left (log2)” value in [7] stood at 0.0737; in [8], 0.101; in test [9], 0.163; in test [10], 0.267.

As to TGACTGA, the “uncleaved DNA left (log2)” value in test [1] was -0.0128; in test [2], -0.0898; in [3] it was -0.00442; in test [4], 0.743; in [5], -0.0931; in [6] it was 1.6. Also, the “uncleaved DNA left (log2)” value in test [7] is -0.0243; in [8], -0.104; in [9] it was -0.058; in [10] it was -0.00184.

For the sequence ATAAGCC, the “uncleaved DNA left (log2)” value in [1] was -0.121; in test [2] it was -0.0138; in test [3] it was -2.88; in test [4] it was -2.9; in test [5], -0.078; in [6], -2.06. Besides, the “uncleaved DNA left (log2)” value is -0.0172 in test [7], -0.476 in test [8], -0.145 in [9] and -1.57 in test [10].

With AAATAAG, the “uncleaved DNA left (log2)” value in test [1] is -0.105; in [2], -0.00968; in [3], -0.808; in test [4], 0.234; in test [5] it was 0.208; in test [6], -0.678. The “uncleaved DNA left (log2)” value was 0.135 in test [7], 0.0463 in [8], 0.0935 in test [9] and -0.127 in [10].

Regarding TCCTGCA, the “uncleaved DNA left (log2)” value was -0.022 in [1]; -0.0201 in [2]; -0.61 in test [3]; -1.14 in [4]; -0.0174 in test [5]; -1.13 in test [6]. Besides, the “uncleaved DNA left (log2)” value is -0.202 in test [7], -0.133 in test [8], -0.0239 in test [9] and -0.0716 in test [10].

Consider AGTTTGG, for which the “uncleaved DNA left (log2)” value in test [1] is 0.171; in test [2], 0.113; in [3], -0.219; in [4], -0.203; in test [5] it was 0.185; in [6], -0.933. The “uncleaved DNA left (log2)” value in test [7] came out at 0.181; in test [8] it was 0.0502; in test [9], 0.0518; in [10], 0.143.

Consider TGAAAGA, for which the “uncleaved DNA left (log2)” value in test [1] was 0.208; in test [2], 0.227; in [3], 0.219; in [4] it was 0.0675; in [5], 0.158; in test [6] it was -0.545. In addition, the “uncleaved DNA left (log2)” value amounted to 0.169 in test [7], 0.165 in [8], 0.0658 in test [9] and 0.215 in test [10].

As for CAGACGT, the “uncleaved DNA left (log2)” value in test [1] is 0.103; in test [2], -0.0151; in test [3] it was 0.0701; in [4], 0.2; in [5], -0.0384; in test [6], -0.299. In addition, the “uncleaved DNA left (log2)” value in test [7] is -1.17; in test [8], 0.015; in test [9], 0.0147; in test [10] it was -0.00184.
